Measurements: publication PMC11995724, “Antibiotic target discovery by integrated phenotypic and activity-based profiling of electrophilic fragments” (Cell chemical biology, 2025)
In all, about 3,200 compounds went through this assay and about 110 (3.4%) showed an effect of 50% or more. This is one part of the list.

test system: T1, V. cholerae SAD30; set-up: species or system S. aureus MSSA476 (TSB) or V. cholerae SAD30 (LB); 384-well bacterial growth screen at 25 uM, OD600 relative to DMSO control; details: relative growth, OD600, LB; 25 µM; inhibitor
T1 construct: SAD30

Q: Which “% of control remaining” value does the source give for `CC(C)CN(C(=O)CCl)c1cnn(-c2ccccn2)c1` [5-A12, 2-chloro-N-(2-methylpropyl)-N-[1-(pyridin-2-yl)-1H-pyrazol-4-yl]acetamide] here?
A: Its value is 93.8111%.

Q: For `C=CC(=O)N(CC)CC(=O)N1CCc2[nH]nc(C(F)(F)F)c2C1` [3-A14, N-ethyl-N-{2-oxo-2-[3-(trifluoromethyl)-1H,4H,5H,6H,7H-pyrazolo[4,3-c]pyridin-5-yl]ethyl}prop-2-enamide], which “% of control remaining” value is on record?
A: The value was 113.086%.

Q: How did the “% of control remaining” value turn out when `Cn1nccc1CN1C[C@@H](F)C[C@H]1CNC(=O)CCl` [5-C04, 2-chloro-N-{[(2S,4S)-4-fluoro-1-[(1-methyl-1H-pyrazol-5-yl)methyl]pyrrolidin-2-yl]methyl}acetamide] was run?
A: Its value is 104.571%.

Q: How did the “% of control remaining” value turn out when `Cc1ccc(NC(=O)CCl)c([N+](=O)[O-])c1` [4-A07, 2-chloro-N-(4-methyl-2-nitrophenyl)acetamide] was run?
A: Its value is 105.068%.

Q: Which “% of control remaining” value does the source give for `O=C(CCl)N1c2ccccc2SCC1c1ccccc1` (stereo not drawn) [4-M18, 2-chloro-1-(3-phenyl-3,4-dihydro-2H-1,4-benzothiazin-4-yl)ethan-1-one] here?
A: The value was 106.966%.

Q: Which “% of control remaining” value does the source give for `C=CC(=O)NC1Cc2ccccc2C1=O` (stereo not drawn) [1-H21, N-(1-oxo-2,3-dihydro-1H-inden-2-yl)prop-2-enamide] here?
A: Its value is 95.0673%.

Q: For `C=CC(=O)NC1CCN(c2nc(C3CC3)cc(C(F)(F)F)n2)CC1` [1-L03, N-{1-[4-cyclopropyl-6-(trifluoromethyl)pyrimidin-2-yl]piperidin-4-yl}prop-2-enamide], which “% of control remaining” value is on record?
A: Its value is 94.1704%.

Q: For `C=CC(=O)N1CCC(NC(C)=O)C1` (stereo not drawn) [1-B19, N-[1-(prop-2-enoyl)pyrrolidin-3-yl]acetamide], which “% of control remaining” value is on record?
A: The value was 89.3871%.

Q: `C=CC(=O)NCC1(c2ccnn2C)CC1` [2-P15, N-{[1-(1-methyl-1H-pyrazol-5-yl)cyclopropyl]methyl}prop-2-enamide] was tested. Which “% of control remaining” value did it give?
A: The value was 94.9821%.

Q: For `C=CC(=O)NCC(C)(C)c1coc(-c2ccccc2)n1` [3-A03, N-[2-methyl-2-(2-phenyl-1,3-oxazol-4-yl)propyl]prop-2-enamide], which “% of control remaining” value is on record?
A: The value was 116.791%.

Q: How did the “% of control remaining” value turn out when `Cc1c(NC(=O)C(C)Cl)c(=O)n(-c2ccccc2)n1C` (stereo not drawn) [6-E06, 2-chloro-N-(1,5-dimethyl-3-oxo-2-phenyl-2,3-dihydro-1H-pyrazol-4-yl)propanamide] was run?
A: Its value is 89.9422%.

Q: Which “% of control remaining” value does the source give for `N#CC(=Cc1ccc(N2CCCC2)cc1)C(=O)N1CCC(C(N)=O)CC1` [9-K12, 1-(2-cyano-2-{[4-(pyrrolidin-1-yl)phenyl]methylidene}acetyl)piperidine-4-carboxamide] here?
A: The value was 76.4786%.

Q: With `C=CC(=O)NCc1ccc(C(=O)N2CCCC(c3nnc[nH]3)C2)cc1` (stereo not drawn) [3-E19, N-({4-[3-(4H-1,2,4-triazol-3-yl)piperidine-1-carbonyl]phenyl}methyl)prop-2-enamide] as the compound, how does the “% of control remaining” value read?
A: Its value is 95.2656%.

Q: With `O=C(CCl)Cc1ccc(F)cc1F` [10-G17, 1-chloro-3-(2,4-difluorophenyl)propan-2-one] as the compound, how does the “% of control remaining” value read?
A: The value was 31.4826%.

Q: `C=CC(=O)Nc1cc2c(cc1Sc1ccccc1)OCCO2` [1-M13, N-[7-(phenylsulfanyl)-2,3-dihydro-1,4-benzodioxin-6-yl]prop-2-enamide] was tested. Which “% of control remaining” value did it give?
A: Its value is 69.8057%.

Q: How did the “% of control remaining” value turn out when `CC(=O)Nc1cccc(N2C(=O)C=CC2=O)c1` [10-D09, N-[3-(2,5-dioxo-2,5-dihydro-1H-pyrrol-1-yl)phenyl]acetamide] was run?
A: The value was 85.564%.

Q: How did the “% of control remaining” value turn out when `CC(Cl)C(=O)NCCS(=O)(=O)Nc1ccccn1` (stereo not drawn) [7-L05, 2-chloro-N-{2-[(pyridin-2-yl)sulfamoyl]ethyl}propanamide] was run?
A: Its value is 83.7932%.

Q: With `C=CC(=O)NCc1ccc(S(=O)(=O)NC2CC2)cc1` [2-P19, N-{[4-(cyclopropylsulfamoyl)phenyl]methyl}prop-2-enamide] as the compound, how does the “% of control remaining” value read?
A: The value was 96.8349%.

Q: `O=C(CCl)NCCCC1CCCCC1` [6-O05, 2-chloro-N-(3-cyclohexylpropyl)acetamide] was tested. Which “% of control remaining” value did it give?
A: The value was 100.256%.

Q: With `CN(C)c1ccc(C=C(C#N)C(=O)N2CCC2)cc1` [9-A14, 2-(azetidine-1-carbonyl)-3-[4-(dimethylamino)phenyl]prop-2-enenitrile] as the compound, how does the “% of control remaining” value read?
A: Its value is 80.5574%.

Q: For `O=C(CCl)NC1CN(S(=O)(=O)c2ccc3c(c2)OCCO3)C1` [5-I16, 2-chloro-N-[1-(2,3-dihydro-1,4-benzodioxine-6-sulfonyl)azetidin-3-yl]acetamide], which “% of control remaining” value is on record?
A: Its value is 98.6866%.

Q: With `Cc1ccc(C=C(C#N)C(=O)Nc2ccc(C(=O)O)cc2)s1` [8-E04, 4-[2-cyano-3-(5-methylthiophen-2-yl)prop-2-enamido]benzoic acid] as the compound, how does the “% of control remaining” value read?
A: The value was 80.8294%.

Q: For `N#CCCN(Cc1ccco1)C(=O)CCl` [5-D20, 2-chloro-N-(2-cyanoethyl)-N-[(furan-2-yl)methyl]acetamide], which “% of control remaining” value is on record?
A: Its value is 100.368%.

Q: Which “% of control remaining” value does the source give for `C=CC(=O)N1CCC(C(=O)Nc2c[nH]c(=O)c(C)c2)CC1` [3-J05, N-(5-methyl-6-oxo-1,6-dihydropyridin-3-yl)-1-(prop-2-enoyl)piperidine-4-carboxamide] here?
A: Its value is 96.6771%.

Q: For `C=CC(=O)NC1CCCN(C2CCCCC2)C1=O` (stereo not drawn) [3-O18, N-(1-cyclohexyl-2-oxopiperidin-3-yl)prop-2-enamide], which “% of control remaining” value is on record?
A: The value was 105.499%.

Q: With `N#CC(=Cc1cccnc1)C(=O)NCCc1ccccc1` [9-K14, 2-cyano-N-(2-phenylethyl)-3-(pyridin-3-yl)prop-2-enamide] as the compound, how does the “% of control remaining” value read?
A: The value was 86.6757%.

Q: With `C=CC(=O)Nc1cn(CCC)cn1` [3-B10, N-(1-propyl-1H-imidazol-4-yl)prop-2-enamide] as the compound, how does the “% of control remaining” value read?
A: The value was 108.146%.

Q: With `CN1C(=CC=C(C#N)C(=O)NCC2CCCO2)C(C)(C)c2ccccc21` (stereo not drawn) [8-M04, 2-cyano-N-[(oxolan-2-yl)methyl]-4-(1,3,3-trimethyl-2,3-dihydro-1H-indol-2-ylidene)but-2-enamide] as the compound, how does the “% of control remaining” value read?
A: The value was 70.6322%.

Q: How did the “% of control remaining” value turn out when `O=C(CCl)Nc1ccc(F)c(F)c1F` [4-M05, 2-chloro-N-(2,3,4-trifluorophenyl)acetamide] was run?
A: The value was 104.033%.

Q: Which “% of control remaining” value does the source give for `C=CC(=O)NC1CCn2cccc2C1` (stereo not drawn) [3-N11, N-(5,6,7,8-tetrahydroindolizin-7-yl)prop-2-enamide] here?
A: Its value is 100.382%.

Q: How did the “% of control remaining” value turn out when `C=CC(=O)N1CC[C@H](NS(C)(=O)=O)C1` [2-H21, N-[(3S)-1-(prop-2-enoyl)pyrrolidin-3-yl]methanesulfonamide] was run?
A: Its value is 102.239%.

Q: Which “% of control remaining” value does the source give for `N#CC(=CC(Cl)=Cc1ccccc1)C(=O)NC1CCCCC1` [8-D17, 4-chloro-2-cyano-N-cyclohexyl-5-phenylpenta-2,4-dienamide] here?
A: Its value is 72.6717%.

Q: For `CC(Cl)C(=O)N(C)C1CCN(c2ccccn2)CC1` (stereo not drawn) [6-J20, 2-chloro-N-methyl-N-[1-(pyridin-2-yl)piperidin-4-yl]propanamide], which “% of control remaining” value is on record?
A: Its value is 92.5206%.

Q: `C=CC(=O)N(Cc1cc(Cl)ccc1OC)C1CCCOCC1` (stereo not drawn) [2-C07, N-[(5-chloro-2-methoxyphenyl)methyl]-N-(oxepan-4-yl)prop-2-enamide] was tested. Which “% of control remaining” value did it give?
A: The value was 87.2624%.

Q: How did the “% of control remaining” value turn out when `Cc1cc(C)c(NC(=O)C(C)Cl)c(C)c1` (stereo not drawn) [5-K15, 2-chloro-N-(2,4,6-trimethylphenyl)propanamide] was run?
A: The value was 88.095%.

Q: Which “% of control remaining” value does the source give for `Cc1ccc(C2CC(c3cccs3)=NN2C(=O)CCl)cc1` (stereo not drawn) [4-I22, 2-chloro-1-[5-(4-methylphenyl)-3-(thiophen-2-yl)-4,5-dihydro-1H-pyrazol-1-yl]ethan-1-one] here?
A: The value was 122.838%.

Q: How did the “% of control remaining” value turn out when `C=CC(=O)NC1CCN(Cc2ccc(Cl)cc2)CC1` [1-N08, N-{1-[(4-chlorophenyl)methyl]piperidin-4-yl}prop-2-enamide] was run?
A: Its value is 104.024%.

Q: `C=CC(=O)NC(C)C(c1ccccc1Cl)n1cccn1` (stereo not drawn) [2-J05, N-[1-(2-chlorophenyl)-1-(1H-pyrazol-1-yl)propan-2-yl]prop-2-enamide] was tested. Which “% of control remaining” value did it give?
A: Its value is 86.7992%.

Q: For `N#CC(=Cc1csc(COc2ccccc2)n1)C(N)=O` [9-B12, 2-cyano-3-[2-(phenoxymethyl)-1,3-thiazol-4-yl]prop-2-enamide], which “% of control remaining” value is on record?
A: Its value is 84.9082%.

Q: For `CC(Cl)C(=O)NCc1ccccc1S(=O)(=O)N1CCOCC1` (stereo not drawn) [7-K15, 2-chloro-N-{[2-(morpholine-4-sulfonyl)phenyl]methyl}propanamide], which “% of control remaining” value is on record?
A: The value was 78.11%.

Q: With `CN(C)c1ccc(C=C(C#N)C(=O)Nc2nccs2)cc1` [8-E06, 2-cyano-3-[4-(dimethylamino)phenyl]-N-(1,3-thiazol-2-yl)prop-2-enamide] as the compound, how does the “% of control remaining” value read?
A: The value was 77.9742%.

Q: With `CC(Cl)C(=O)N1CCN(CCOc2ccc3c(c2)CCC3)CC1` (stereo not drawn) [6-H17, 2-chloro-1-{4-[2-(2,3-dihydro-1H-inden-5-yloxy)ethyl]piperazin-1-yl}propan-1-one] as the compound, how does the “% of control remaining” value read?
A: Its value is 64.6128%.

Q: For `C=CC(=O)NCc1csc(C(C)(C)C)n1` [2-C09, N-[(2-tert-butyl-1,3-thiazol-4-yl)methyl]prop-2-enamide], which “% of control remaining” value is on record?
A: Its value is 91.5854%.

Q: For `CCOc1ccc(N2C(=O)C=CC2=O)cc1` [10-A14, 1-(4-ethoxyphenyl)-2,5-dihydro-1H-pyrrole-2,5-dione], which “% of control remaining” value is on record?
A: The value was 23.3781%.

Q: `CC1(C)CN(C(=O)CCl)CCO1` [6-C05, 2-chloro-1-(2,2-dimethylmorpholin-4-yl)ethan-1-one] was tested. Which “% of control remaining” value did it give?
A: Its value is 95.0991%.
